# Measured values as given in PubChem BioAssay (NCATS).
# Inconclusive results, whose numbers are uncertain, are shown with a selection of clear calls. For part of these data: A potency beside an inconclusive call is a rough fit, not a confirmed value. Activity calls are given as the source filed them. Unless noted, the call rests on the fitted dose curve; in most records, active means well fitted curve in the direction sought with a large enough effect; inconclusive means small, poorly fitted or top-dose-only effect, or another doubt; inactive means no such curve, though single readings can be large; an effect the other way counts as inactive or inconclusive. *1 amine or outer side, *2 acyl side, *3 side chain or, on linkers, in order; H or OH if unused. Where a SMILES comes first, the peptide text is derived from it. Bridges are numbered along the chain shown (N, C = ends). Roman numbers before positions name the chains, in order. [ ]: non-standard residue; d: D form. Actinocin(9to1) = Cc1c2oc3c(C)ccc(C(=O)[*:1])c3nc-2c(C(=O)[*:2])c(N)c1=O; NMeV = CN[CH](C(=O)O)C(C)C; Sar = CNCC(=O)O
# Legend:
# [1] = qHTS of pediatric cancer cell lines to identify multiple opportunities for drug repurposing: Primary screen for RD cells (AID 1347104); details: RD rhabdomyosarcoma viability, CellTiter-Glo luminescence, 48 h; activity change, negative = cytotoxic: at 46 µM (top of the series); further: potency means the concentration at half of the fitted maximal effect; nearly all actives have a fitted effect of over 55% in size
# Method in brief: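 Primary screen of approved and investigational compounds on cells in growth media at 37 degrees C, 5% CO2. MIPE set at 11-point and NPC set at 8-point dilutions; viability scored by ATP-based luminescence at 48 hours.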
# [2] = NS1 protein of Zika virus - qHTS assay to identify small molecule inhibitors in human HEK 293 cells (AID 1347053); further: potency means the concentration at half of the fitted maximal effect; nearly all actives have a fitted effect of over 55% in size
# Method in brief: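 Read-out is a two-antibody TR-FRET for ZIKV NS1, normalized between uninfected cells and infected cells. Compound added 1 h before MR766 infection at MOI 0.5; human HEK 293 cells incubated 24 h, 37 C.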
# [3] = qHTS of pediatric cancer cell lines to identify multiple opportunities for drug repurposing: Primary screen for U-2 OS cells (AID 1347096); further: nearly all actives have a fitted effect of over 50% in size; further: potency means the concentration at half of the fitted maximal effect
# Method in brief: (§1)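 Viability after 48 h compound treatment at 37C, 500-1,000 cells/well, read as ATP luminescence with CellTiter-Glo. Primary screens used 11-point (MIPE, 0.78 nM-46 µM) or 8-point (NPC, 0.59 nM-46 µM) final concentrations; follow-up screens used 11-point dilutions.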
# [4] = qHTS of pediatric cancer cell lines to identify multiple opportunities for drug repurposing: Primary screen for LAN-5 cells (AID 1347100); further: potency means the concentration at half of the fitted maximal effect
# Method in brief: as §1
# [5] = qHTS of pediatric cancer cell lines to identify multiple opportunities for drug repurposing: Confirmatory screen for LAN-5 cells (AID 1347113); further: potency means the concentration at half of the fitted maximal effect; nearly all actives have a fitted effect of over 65% in size
# Method in brief: as §1
# [6] = qHTS of pediatric cancer cell lines to identify multiple opportunities for drug repurposing: Confirmatory screen for NB-EBc1 cells (AID 1347115); details: NB-EBc1 neuroblastoma cells, viability (cytotoxicity); activity change, negative = cytotoxic: at 45.9 µM (top of the series);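 further: potency means the concentration at half of the fitted maximal effect; cells exposed to compound for 48 h before the viability read; nearly all actives have a fitted effect of over 45% in size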
# Method in brief: as §1
# [7] = qHTS of pediatric cancer cell lines to identify multiple opportunities for drug repurposing: Confirmatory screen for SJ-GBM2 cells (AID 1347116); further: potency means the concentration at half of the fitted maximal effect; nearly all actives have a fitted effect of over 60% in size
# Method in brief: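 Viability measured as metabolically active cells via CellTiter-Glo luminescence following 48 hours of compound exposure, 11-point dilutions in confirmatory testing. 500-1,000 cells/well plated 5 hours before dosing; controls were DMSO and 2.3 µM bortezomib.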
# [8] = qHTS of pediatric cancer cell lines to identify multiple opportunities for drug repurposing: Confirmatory screen for RD cells (AID 1347124); details: RD rhabdomyosarcoma cell viability; activity change, negative = cytotoxic: at 45.9 µM (top of the series);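 further: potency means the concentration at half of the fitted maximal effect; cells exposed to compound for 48 h before viability readout; nearly all actives have a fitted effect of over 65% in size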
# Method in brief: as §1
# [9] = qHTS of pediatric cancer cell lines to identify multiple opportunities for drug repurposing: Confirmatory screen for Saos-2 cells (AID 1347127); further: potency means the concentration at half of the fitted maximal effect; nearly all actives have a fitted effect of over 60% in size
# Method in brief: as §1
# [10] = Quantitative High-Throughput drug screen in 47 multiple myeloma cell lines against the NCATS MIPE library collection: Karpas417_ECACC cell viability assay (AID 1918961); details: Karpas417 myeloma viability, CellTiter-Glo ATP luminescence, 48 h; series mostly up to 45.8 µM
# Method in brief: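 CellTiter-Glo luminescence (ATP) after 48 h compound exposure, 37C/5% CO2; 500 cells/well; MIPE 4.0 approved/investigational drugs pinned in; DMSO = 100%, media only = 0% viability.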
# [11] = Quantitative High-Throughput drug screen in 47 multiple myeloma cell lines against the NCATS MIPE library collection: JIM1_ECACC cell viability assay (AID 1918964)
# Method in brief: (§2)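 Approved and investigational drugs from MIPE 4.0 were added by pin tool to 500 cells per well. After 48 hours at 37C, ATP-based CellTiter-Glo luminescence indicated remaining viability.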
# [12] = Quantitative High-Throughput drug screen in 47 multiple myeloma cell lines against the NCATS MIPE library collection: KMS21BM_JCRB cell viability assay (AID 1918974); details: ATP luminescence, 48 h; viability: at 45.8 µM (top of the series)
# Method in brief: as §2
# [13] = qHTS of pediatric cancer cell lines to identify multiple opportunities for drug repurposing: Primary screen for TC32 cells (AID 1347089); further: potency means the concentration at half of the fitted maximal effect; nearly all actives have a fitted effect of over 60% in size
# Method in brief: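 Luminescent CellTiter-Glo read-out of metabolically active TC32 cells after 48 h compound exposure. Primary: MIPE 11-point, 0.78 nM–46 µM; NPC 8-point, 0.59 nM–46 µM. Confirmatory: 11-point dilutions.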
# [14] = qHTS of pediatric cancer cell lines to identify multiple opportunities for drug repurposing: Primary screen for SK-N-MC cells (AID 1347093); details: SK-N-MC viability, CellTiter-Glo luminescence, 48 h; activity change, negative = cytotoxic: at 46 µM (top of the series); further: potency means the concentration at half of the fitted maximal effect
# Method in brief: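 Metabolically active cells were quantified by ATP-dependent luminescence (CellTiter-Glo, 15 min at room temperature) following 48 h treatment. Cells had been plated at 500-1,000 per well and settled for 5 h beforehand.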
# [15] = A High-Content qHTS Against Drug Library for the Identification of Small Molecules that Inhibit DYT1 Early Onset Primary Dystonia-Associated Cell Pathology (AID 1645839; calls by dose curve; further: potency means the concentration at half of the fitted maximal effect)
# Method in brief: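 Cells were seeded and left for 24 h, then dosed with compound alongside tetracycline induction of mutant EGFP-TorsinA. They were incubated for 48 h, fixed in 4% paraformaldehyde, permeabilized and imaged for mislocalization (%pathology) and cell count.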
# MKL-1 = assay: qHTS assay to identify novel small-molecules to repurpose for Merkel cell carcinoma treatment (AID 1296009); details: MCC and control cell lines, CellTiter-Glo viability, 72 h; series mostly up to 46 µM; further: potency means the concentration at half of the fitted maximal effect; nearly all actives have a fitted effect of over 60% in size
# Method in brief: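 CellTiter-Glo luminescence after 72 hr compound exposure at 37 degree celsius gave cell viability. Libraries NPC and MIPE were run as 8- and 11-point dose responses; RLUs normalized to DMSO (negative) and no-cell (cytotoxicity) controls.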
# [16] = qHTS of pediatric cancer cell lines to identify multiple opportunities for drug repurposing: Primary screen for Rh18 cells (AID 1347102); further: nearly all actives have a fitted effect of over 65% in size; further: potency means the concentration at half of the fitted maximal effect
# Method in brief: as §1
# [17] = test system: Zika virus NS2B-NS3 protease; assay: Primary screen GU AMC qHTS for Zika virus inhibitors (AID 1347154); further: nearly all actives have a fitted effect of over 70% in size; further: potency means the concentration at half of the fitted maximal effect
# Method in brief: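 Unlinked Zika NS2B hydrophilic domain–NS3 protease complex at 25 nM in 10 mM Tris-HCl pH 8.0, 0.01% Tween 20, with an AMC peptide substrate. Fluorescence change (340/450 nm) over 15 min at room temperature, normalized to controls, fitted to 4-parameter Hill.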
# [18] = biological target: Phospholipid hydroperoxide glutathione peroxidase GPX4 (Homo sapiens) (UniProt P36969); assay: Primary qHTS Assay for Inhibitors of Recombinant Selenoprotein Glutathione Peroxidase 4 (GPX4) (AID 1845192); further: potency means the concentration at half of the fitted maximal effect; nearly all actives have a fitted effect of over 65% in size
# Chain of UniProt P36969 (P36969 whole entry, looked up): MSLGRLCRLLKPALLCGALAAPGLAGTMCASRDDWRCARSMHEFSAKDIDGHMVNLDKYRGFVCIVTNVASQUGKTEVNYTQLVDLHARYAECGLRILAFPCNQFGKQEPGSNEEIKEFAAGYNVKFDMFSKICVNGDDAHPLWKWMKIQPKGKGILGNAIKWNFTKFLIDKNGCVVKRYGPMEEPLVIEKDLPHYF
# Method in brief: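 Steps: GPX4 plus compound, 30 min RT; add GR/GSH/NADPH master mix; start with cumene hydroperoxide; read 340/450 nm fluorescence at 0 and 15 min. Finals were 200 nM GPX4, 1 mM GSH, 0.5 mM CHP, 0.5 mM NADPH, 100 nM GR.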
# Tags describe the fitted curve by direction and shape.
smiles,measurement,setting,value
O=C(c1ccc(F)cc1)C1CCN(CCn2c(=S)[nH]c3ccccc3c2=O)CC1,Potency,[1],"inconclusive: 29.9 µM [cytotoxic, single point]"
"Cc1c2oc3c(C)ccc(C(=O)NC4C(=O)NC(C(C)C)C(=O)N5CCCC5C(=O)N(C)CC(=O)N(C)C(C(C)C)C(=O)OC4C)c3nc-2c(C(=O)NC2C(=O)NC(C(C)C)C(=O)N3CCCC3C(=O)N(C)CC(=O)N(C)C(C(C)C)C(=O)OC2C)c(N)c1=O (configuration not stated) (I: TVP[Sar][NMeV] / II: TVP[Sar][NMeV]; ester I:1-I:C, II:1-II:C; linker I:N-II:N via Actinocin(9to1); configuration not given here)",Potency,[2],active: 7.43 µM
same,Potency,[3],active: 0.001 µM
same,Potency,[4],"inconclusive: 3.72 µM [cytotoxic, full curve, poor fit]"
same,Potency,[1],active: 0.001 µM
same,Potency,[5],active: 0.0023 µM
same,Potency,[6],"inconclusive: 0.0029 µM [cytotoxic, full curve, poor fit]"
same,Potency,[7],"inconclusive: 0.0329 µM [cytotoxic, full curve, poor fit]"
same,Potency,[8],"inconclusive: 0.0329 µM [cytotoxic, full curve, poor fit]"
same,Potency,[9],"inconclusive: 0.261 µM [cytotoxic, full curve, poor fit]"
same,Potency,[10],inactive
same,Potency,[11],inactive
same,Potency,[12],inactive
CCCCCCCCCCOCC(O)CN (configuration not stated),Potency,[2],"inconclusive: 35.5 µM [inhibitor, single point]"
same,Potency,[13],"inconclusive: 18.7 µM [cytotoxic, partial curve, poor fit]"
same,Potency,[14],"inconclusive: 26.6 µM [cytotoxic, single point]"
same,Potency,[4],"inconclusive: 29.9 µM [cytotoxic, single point]"
same,Potency,[1],"inconclusive: 29.9 µM [cytotoxic, single point]"
same,Potency,[15],"inconclusive: 11.2 µM [inhibitor, partial curve, poor fit]"
same,Potency,MKL-1,"inconclusive: 23.7 µM [inhibitor, single point]"
COC(=O)C1=C(C)NC(C)=C(C(=O)OCCN(C)Cc2ccccc2)C1c1cccc([N+](=O)[O-])c1 (configuration not stated),Potency,[2],"inconclusive: 5.01 µM [inhibitor, partial curve, poor fit]"
same,Potency,[14],"inconclusive: 26.6 µM [cytotoxic, single point]"
same,Potency,[3],"inconclusive: 16.8 µM [cytotoxic, partial curve]"
same,Potency,[4],"inconclusive: 29.9 µM [cytotoxic, single point]"
same,Potency,[16],"inconclusive: 13.3 µM [cytotoxic, partial curve, poor fit]"
same,Potency,[1],"inconclusive: 29.9 µM [cytotoxic, single point]"
same,Potency,[15],"inconclusive: 20 µM [inhibitor, single point]"
same,Potency,MKL-1,"inconclusive: 26.6 µM [inhibitor, partial curve]"
CCC(Cc1c(I)cc(I)c(N)c1I)C(=O)O (configuration not stated),Potency,[17],inactive
CCCN(CCC)S(=O)(=O)c1ccc(C(=O)O)cc1,Potency,[15],inactive
O=c1[nH]c(=O)n([C@H]2CCCO2)cc1F,Potency,[3],inactive
CCOC(=O)C1=C(C)NC(C)=C(C(=O)OCC)C1c1ccccc1/C=C/C(=O)OC(C)(C)C,Potency,[2],"inconclusive: 35.5 µM [inhibitor, single point]"
same,Potency,[14],"inconclusive: 29.9 µM [cytotoxic, single point]"
same,Potency,[3],"inconclusive: 26.6 µM [cytotoxic, single point]"
same,Potency,[4],"inconclusive: 23.7 µM [cytotoxic, single point]"
same,Potency,[16],"inconclusive: 16.8 µM [cytotoxic, single point]"
same,Potency,[1],"inconclusive: 29.9 µM [cytotoxic, single point]"
same,Potency,[17],"inconclusive: 15.8 µM [inhibitor, partial curve]"
same,Potency,[15],"inconclusive: 10 µM [inhibitor, partial curve, poor fit]"
CCCN(CCC)C(=O)C(CCC(=O)O)NC(=O)c1ccccc1 (configuration not stated),Potency,[4],inactive
same,Potency,[16],inactive
NC(=O)c1cccc2cn(-c3ccc(C4CCCNC4)cc3)nc12 (configuration not stated),Potency,[18],active: 20.2 µM
